Measured values: PubChem BioAssay (NCATS)
Some of the results follow. Shown are side measurements of this screen, not its main read-out; they come without a call. Most of these compounds were active or inconclusive in the main read-out, so they are no random draw. The note in brackets gives the kind of curve behind each potency; many fits are weak.

molecular target: Histamine N-methyltransferase (Homo sapiens) (UniProt P50135); assay: Confirmatory Screen for Target Class Profiling of Small Molecule Inhibitors of Methyltransferases (AID 1745852); details: MTase-Glo luminescence, SAH detection, recombinant enzyme; measured here: HNMT inhibition potency;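 also: inhibitor potency for blocking SAH production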
UniProt P50135, sequence (P50135 whole entry, looked up): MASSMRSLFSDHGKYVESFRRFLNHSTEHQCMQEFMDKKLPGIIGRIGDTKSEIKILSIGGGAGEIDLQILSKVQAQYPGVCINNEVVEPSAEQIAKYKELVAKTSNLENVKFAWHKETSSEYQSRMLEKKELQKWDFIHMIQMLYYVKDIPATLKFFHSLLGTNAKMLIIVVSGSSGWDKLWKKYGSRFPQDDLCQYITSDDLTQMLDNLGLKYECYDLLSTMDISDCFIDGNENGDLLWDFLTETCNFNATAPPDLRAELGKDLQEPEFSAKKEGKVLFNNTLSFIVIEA
Tags tell the direction and shape of the fitted curve.

SMILES	IC50
CC(CNC(=O)c1nnn2c1c(=O)[nH]c1cc(F)ccc12)c1ccccc1 (stereo not drawn)	19.2 µM [falling, partial curve]
CN1C(=O)C(c2ccccc2)CC12CCN(c1ccnc(N)n1)CC2 (stereo not drawn)	21.5 µM [falling, partial curve]
CCN(CC)CCNC(=O)CCc1nnc2n(Cc3ccc(C)cc3)c(=O)c3ccccc3n12	17.1 µM [falling, partial curve]
CCN(CC)c1cc(CCC(=O)N2CCN(c3cccc(OC)c3)CC2)ccn1	7.64 µM [falling, partial curve]
Cc1cnccc1NCCn1ccnc1-c1cc2n(n1)CCCNC2	4.82 µM [falling, partial curve]
CCC(=O)N1CCOc2c(cc(-c3ccc(OC)c(OC)c3)cc2OC[C@H]2CCCN(C)C2)C1	21.5 µM [falling, partial curve]
COC(=O)[C@H](Cc1cccc(C(=N)N)c1)[C@@H](C)NC(=O)c1ccc(-c2cc[n+]([O-])cc2)cc1	17.1 µM [falling, partial curve]
CCN(CC)CCNC(=O)CCCc1nnc2n3nc(-c4ccccc4)nc3c3ccccc3n12	6.81 µM [falling, full curve]
O=C(c1ccc(C2CCCNC2)cc1)N1CCN(c2ccncc2)CC1 (stereo not drawn)	0.681 µM [falling, full curve]
COc1cc2nc(N3CCN(C)CC3)nc(NC3CCN(Cc4ccccc4)CC3)c2cc1OC	21.7 µM [falling, partial curve]
Cn1c(CNc2ccc(C(=N)N)cc2)nc2cc(C(=O)N(CCC(=O)O)c3ccccn3)ccc21	21.5 µM [falling, partial curve]
COc1cc(N2CCC(O)CC2)ccc1Nc1cc(Nc2ccccc2S(=O)(=O)C(C)C)c2cc[nH]c2n1	10.6 µM [falling, partial curve]
CCNc1nccc(N2CCC(CC(=O)NCC(C)C)CC2)n1	17.1 µM [falling, partial curve]
C=CC[N+]1([C@H]2C[C@H]3[C@@H]4CC[C@H]5C[C@H](OC(C)=O)[C@@H](N6CCCCC6)C[C@]5(C)[C@H]4CC[C@]3(C)[C@H]2OC(=O)CC)CCCCC1	15.2 µM [falling, partial curve]
COc1ccc(CNc2cc3c(cn2)CN(C)CCN3)cc1OC	6.23 µM [falling, full curve]
Fc1ccc2c(CCNCc3cccc(OCC(F)(F)C(F)F)c3)c[nH]c2c1	21.5 µM [falling, partial curve]
Cc1nccn1CCC1CCN(c2nccc(-c3ccccn3)n2)CC1	19.2 µM [falling, partial curve]
O=C(CCc1nnc2n(Cc3ccc(F)cc3)c(=O)c3ccccc3n12)NCCN1CCCC1	15.2 µM [falling, partial curve]
Cc1ccc(S(=O)(=O)c2nnn3c2nc(N2CCC(N4CCCCC4)CC2)c2ccccc23)cc1C	0.764 µM [falling, full curve]
CCN(CC)CCCNC(=O)CCCc1nnc2n3nc(-c4ccccc4)nc3c3ccccc3n12	15.2 µM [falling, partial curve]
Cc1cnc(CCNC(=O)c2cccs2)n1C1CCC1	19.2 µM [falling, partial curve]
COc1ccc(NC(=O)CCc2ccnc(N3CCCC3)c2)c(OC)c1	3.04 µM [falling, full curve]
CC(C)c1nccn1CCCNC(=O)c1ccc(-c2cccc(F)c2)nc1	21.5 µM [falling, partial curve]
Cc1noc(C)c1-c1cc(-c2ccc(CN(C)C)cc2)cn2cncc12	11.1 µM [falling, partial curve]
O=S(=O)(c1ccc(Br)cc1)c1nnn2c1nc(NCCc1c[nH]c3ccccc13)c1ccccc12	17.1 µM [falling, partial curve]
COc1cc2nc(N3CCCCC3)nc(NC3CCN(C)CC3)c2cc1OC	7.69 µM [falling, partial curve]
Cc1ccc(Cn2c(=O)c3ccccc3n3c(CCC(=O)NCCCN4CCN(C)CC4)nnc23)cc1	13.6 µM [falling, partial curve]
O=C(CCc1nnc2n(Cc3ccc(Cl)cc3)c(=O)c3ccccc3n12)N1CCC(N2CCCCC2)CC1	3.41 µM [falling, full curve]
